Source: ChEMBL document CHEMBL4888484, “Replenishing the malaria drug discovery pipeline: Screening and hit evaluation of the MMV Hit Generation Library 1 (HGL1) against asexual blood stage Plasmodium falciparum ,using a nano luciferase reporter read-out” (2022)
The campaign covered roughly 150,000 compounds. About 540 (0.36%) showed an effect of 50% or more. This is one part of the list.

What follows are compounds tested on Plasmodium falciparum (assay: Primary screen in NF54 nanoGlo assay, in single point, at 2uM, 72h; a lower Z score goes with more inhibition). Details: timepoint 72 hour.
Format: functional, Erythrocyte

Structure (SMILES)	% Inhibition	Z score
O=C([C@@H]1CNc2ccccc2O1)N1CCOCC1	36%	-4.9
Cc1c(Br)cccc1CCNC(=O)[C@H]1CCNC(=O)C1	-16%	1.76
COc1ccccc1NC(=O)c1cnn2c(=O)cc(C)[nH]c12	-10%	1.17
CC(C)NC(=O)c1nsc(C(=O)N2CCN(C3CCCCC3)CC2)c1N	-11%	1.32
CCc1csc(CNC(=O)c2ccc(N[C@@H](C)c3cnn(C)c3)nc2)n1	-11%	1.56
O=C(Cc1csc(-c2cccnc2)n1)Nc1ccc(N2CCOCC2)cc1	-8%	1.1
CCCN(C[C@H]1CCOC1)S(=O)(=O)Cc1ccccc1F	-1%	0.12
Cc1ocnc1C(=O)N1CC[C@@H]2OCc3cccc(c3)Oc3cccc(c3)CCC(=O)N(C)CC(=O)N[C@@H]2C1	-11%	1.34
CNC[C@H](C)C(=O)N(Cc1ccccc1)CC1CCOCC1	-3%	0.39
COCc1noc(C(C)N2CCOC(c3nccs3)C2)n1 (stereo not drawn)	9%	-0.88
CCn1c(N2CC[C@H](S(=O)(=O)NC(C)C)C2)nnc1C(C)(C)C	-8%	1.06
O=C1CCCc2nc(-c3ccccc3Br)sc21	-4%	0.77
O=C(N[C@H]1CCc2ccccc21)c1nnn2c1c(=O)[nH]c1cc(F)ccc12	2%	-0.44
CC[C@H]1C[C@@H](NC(=O)c2ccccc2)C[C@@H](c2ccc(Cl)cc2)O1	-4%	0.41
CC(C)(NCc1ccc(C#N)cc1F)C(=O)N1CCCC1	5%	-0.53
Cc1cccc(NS(=O)(=O)c2cc(-c3nc(C)c(C(=O)N4CCCCC4)s3)cs2)c1C	-2%	0.35
COc1ccccc1CNC(=O)c1cc2ccncc2n1C	-1%	0.17
Cc1c(Cl)cccc1NC(=O)c1csc(-c2ccc(N3CCCC3)nc2)n1	-13%	1.56
CNC(=NCCc1csc(N2CCCC2)n1)NCc1ccco1	9%	-0.79
CCn1ncc(C(=O)NC(C)C2CC3CCC2C3)c1C (stereo not drawn)	-10%	1.51
C[C@@]1(C(=O)NCc2ccccc2)Cn2cnc(C(=O)NCCc3ccc(Cl)cc3)c2C(=O)N1C1CC1	-9%	1.78
COCCCNC(=O)[C@H]1CCCN(c2nnc3ccc(C(F)(F)F)cn23)C1	-6%	0.62
O=C(CNc1ccccc1N1CCCCC1)NC1CCCC1	-7%	0.93
CC(C)NC(=O)C(=O)Nc1cc(Cl)ccc1Cl	-8%	1.5
CN(CCc1ccccc1)[C@@H]1[C@H](O)[C@H](CO)O[C@@H]1CNCc1ccc(F)cc1	-11%	1.68
COCCN(CCC#N)[C@@H]1C=CCCC1	5%	-0.47
O=C(c1noc2ccc(S(=O)(=O)N3CCN(C4CCCCC4)CC3)cc12)N1CCCC1	-10%	1.56

Structure (SMILES)	% Inhibition	Z score
Cn1c(N(CCO)Cc2ccccc2)nc2c1c(=O)n(Cc1ccc(Cl)cc1Cl)c(=O)n2C	-7%	0.74
NC(=O)C1CCN(C(=O)c2cc(S(=O)(=O)N3CCc4ccccc4C3)ccc2Cl)CC1	-5%	0.7
O=S(=O)(NCCn1nc(-c2ccccn2)cc1C1CC1)C1CC1	-5%	0.7
Cc1cc(C)n(-c2ccc(CC(=O)Nc3ccc(Br)cc3F)cc2)n1	-12%	2.34
N=C(NS(=O)(=O)Cc1ccccc1)N1CCN(c2ccccc2F)CC1	-15%	2.3
Cc1ccccc1-c1cn(CC(=O)NCCc2ccc(Cl)cc2)nc1N1CCOCC1	-15%	1.8
O=C(COc1ccccc1)NC1(C(=O)NC2CCCC2)CCCCC1	1%	-0.07
CC[C@@H](CO)NCc1ccc(-c2ccn(Cc3scnc3C)n2)s1	-5%	0.73
COc1cccc(CN2CCC(N3C[C@H](OC)[C@@H]3c3cccnc3)CC2)n1	-8%	0.99
COc1cc(CN2CC[C@H](c3cnn(C)c3)C2)cc(OC)c1OC	1%	-0.11
CC(C)NC(=O)[C@@H]1CCC(=O)N1C1CCN(C(=O)c2cc(F)cc(F)c2)CC1	6%	-1.14
OC1CCN([C@H]2CCN(Cc3ccccc3OC(F)F)C[C@@H]2O)CC1	-3%	0.42
O=C(CNC[C@]1(c2ccc(F)cc2)CCOC1)Nc1cnccn1	-14%	1.27
C[C@H](c1nc(-c2ccon2)no1)C1CCC1	0%	0.01
Cc1cc(C)cc(C(=O)N[C@H](c2ccccc2)c2nnc(N3CCCC3)o2)c1	-5%	0.53
Cc1noc(C)c1CN(C)C(=O)Nc1ccc(Cl)cc1Cl	-1%	0.26
CCC1(CC)CN(c2nc(C)cnc2C)CCO1	-5%	0.83
Cc1nc(C(C)C)c(Cc2ccc(F)cc2)c(N2CCN(C(=O)c3cccs3)CC2)n1	-4%	0.67
O=C(Nn1c(C2CCCCC2)nc2ccccc2c1=O)c1cccc(Cl)c1	-11%	1.27
CCCN1C(=O)N[C@@H](Cc2ccc(O)cc2)C1=O	0%	-0.05
Cc1nnsc1C(=O)Nc1cc2c(cc1Br)CCC2	-5%	0.53
c1ccc(C(NCc2nc(C3CC3)no2)c2ccccc2)cc1	-12%	1.28
CN1CCN(CCCC2CCCC2)C[C@@H]1CCO	-12%	1.39
Nc1ccc2c(c1)N(C(=O)C1CCCC1)CC2	-14%	1.61
COCC(=O)Nc1cc(C2CC2)nn1-c1nc(C)cc(=O)[nH]1	4%	-0.78
CNc1cc(C)nc(-c2cccc(C(=O)NCCN3CCCCC3=O)c2)n1	8%	-1.3
Cc1ccc([C@H](CNC(=O)c2snnc2C)N2CCC(C)CC2)o1	0%	-0.06
